# Test results taken from the supplement of paper PMC8728848.
# The list shows a part of the results.
# Key:
# Assay in all cases: glycan array binding signal (z-score within array); higher = stronger binding
# Details in all cases: glycan notation: IUPAC condensed, linker removed
# Neu5Ac(a2-3)GalNAc = biological target: Neu5Ac(a2-3)GalNAc
# Outline: (§1)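 Glycan array data came from 3228 arrays in the Consortium for Functional Glycomics database, and only arrays with an available protein sequence were kept. Glycan names were put into IUPAC-condensed notation, and columns mapping to the same glycan were averaged. The binding signal is a within-array Z-score, averaged across arrays of one protein sequence run at different concentrations or buffers and across linkers. A negative Z-score can be read as non-binding.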
# [1] = biological target: Neu5Ac(a2-3)GalNAc(b1-4)GlcNAc
# Outline: as §1
# [2] = biological target: Neu5Ac(a2-3)[GalNAc(b1-4)]Gal(b1-4)Glc
# Outline: as §1
# [3] = biological target: Neu5Ac(a2-3)[GalNAc(b1-4)]Gal(b1-4)GlcNAc
# Outline: as §1
# [4] = biological target: Neu5Ac(a2-3)[GalNAc(b1-4)]Gal(b1-4)GlcNAc(b1-3)GalNAc
# Outline: as §1
# [5] = biological target: Neu5Ac(a2-3)[Neu5Ac(a2-6)]GalNAc
# Outline: as §1
# Neu5Ac(a2-6)Gal = biological target: Neu5Ac(a2-6)Gal
# Outline: as §1
# [6] = biological target: Neu5Ac(a2-6)Gal(b1-3)GlcNAc(b1-3)[Gal(b1-4)GlcNAc(b1-6)]Gal(b1-4)Glc
# Outline: as §1
# Neu5Ac(a2-6)Gal(b1-4)Glc = biological target: Neu5Ac(a2-6)Gal(b1-4)Glc
# Outline: as §1
# [7] = biological target: Neu5Ac(a2-6)Gal(b1-4)GlcNAc
# Outline: as §1
# [8] = biological target: Neu5Ac(a2-6)Gal(b1-4)GlcNAc(b1-2)Man
# Outline: as §1
# [9] = biological target: Neu5Ac(a2-6)Gal(b1-4)GlcNAc(b1-2)Man(a1-3)Man(b1-4)GlcNAc(b1-4)GlcNAc
# Outline: as §1
# [10] = biological target: Neu5Ac(a2-6)Gal(b1-4)GlcNAc(b1-2)Man(a1-3)[Gal(b1-4)GlcNAc(b1-2)Man(a1-6)]Man(b1-4)GlcNAc(b1-4)GlcNAc
# Outline: as §1
# [11] = biological target: Neu5Ac(a2-6)Gal(b1-4)GlcNAc(b1-2)Man(a1-3)[GlcNAc(b1-2)Man(a1-6)]Man(b1-4)GlcNAc(b1-4)GlcNAc
# Outline: as §1
# [12] = biological target: Neu5Ac(a2-6)Gal(b1-4)GlcNAc(b1-2)Man(a1-3)[GlcNAc(b1-4)][Neu5Ac(a2-6)Gal(b1-4)GlcNAc(b1-2)Man(a1-6)]Man(b1-4)GlcNAc(b1-4)GlcNAc
# Outline: as §1
# [13] = biological target: Neu5Ac(a2-6)Gal(b1-4)GlcNAc(b1-2)Man(a1-3)[Man(a1-6)]Man(b1-4)GlcNAc(b1-4)GlcNAc
# Outline: as §1
# [14] = biological target: Neu5Ac(a2-6)Gal(b1-4)GlcNAc(b1-2)Man(a1-3)[Neu5Ac(a2-3)Gal(b1-4)GlcNAc(b1-2)Man(a1-6)]Man(b1-4)GlcNAc(b1-4)GlcNAc
# Outline: as §1
# [15] = biological target: Neu5Ac(a2-6)Gal(b1-4)GlcNAc(b1-2)Man(a1-3)[Neu5Ac(a2-6)Gal(b1-4)GlcNAc(b1-2)Man(a1-6)]Man(b1-4)GlcNAc(b1-4)GlcNAc
# Outline: as §1
# [16] = biological target: Neu5Ac(a2-6)Gal(b1-4)GlcNAc(b1-2)Man(a1-3)[Neu5Ac(a2-6)Gal(b1-4)GlcNAc(b1-2)Man(a1-6)]Man(b1-4)GlcNAc(b1-4)[Fuc(a1-6)]GlcNAc
# Outline: as §1
# [17] = biological target: Neu5Ac(a2-6)Gal(b1-4)GlcNAc(b1-2)Man(a1-6)Man(b1-4)GlcNAc(b1-4)GlcNAc
# Outline: as §1
# [18] = biological target: Neu5Ac(a2-6)Gal(b1-4)GlcNAc(b1-2)Man(a1-6)[Gal(b1-4)GlcNAc(b1-2)Man(a1-3)]Man(b1-4)GlcNAc(b1-4)GlcNAc
# Outline: as §1
# [19] = biological target: Neu5Ac(a2-6)Gal(b1-4)GlcNAc(b1-2)Man(a1-6)[GlcNAc(b1-2)Man(a1-3)]Man(b1-4)GlcNAc(b1-4)GlcNAc
# Outline: as §1
# [20] = biological target: Neu5Ac(a2-6)Gal(b1-4)GlcNAc(b1-2)Man(a1-6)[Man(a1-3)]Man(b1-4)GlcNAc(b1-4)GlcNAc
# Outline: as §1
# [21] = biological target: Neu5Ac(a2-6)Gal(b1-4)GlcNAc(b1-2)[Neu5Ac(a2-6)Gal(b1-4)GlcNAc(b1-4)]Man(a1-3)[GlcNAc(b1-4)][Neu5Ac(a2-6)Gal(b1-4)GlcNAc(b1-2)[Neu5Ac(a2-6)Gal(b1-4)GlcNAc(b1-6)]Man(a1-6)]Man(b1-4)GlcNAc(b1-4)GlcNAc
# Outline: as §1
# [22] = biological target: Neu5Ac(a2-6)Gal(b1-4)GlcNAc(b1-2)[Neu5Ac(a2-6)Gal(b1-4)GlcNAc(b1-4)]Man(a1-3)[GlcNAc(b1-4)][Neu5Ac(a2-6)Gal(b1-4)GlcNAc(b1-4)Man(a1-6)]Man(b1-4)GlcNAc(b1-4)GlcNAc
# Outline: as §1
# [23] = biological target: Neu5Ac(a2-6)Gal(b1-4)GlcNAc(b1-2)[Neu5Ac(a2-6)Gal(b1-4)GlcNAc(b1-6)]Man(a1-6)[Neu5Ac(a2-6)Gal(b1-4)GlcNAc(b1-2)Man(a1-3)][GlcNAc(b1-4)]Man(b1-4)GlcNAc(b1-4)GlcNAc
# Outline: as §1
# [24] = biological target: Neu5Ac(a2-6)Gal(b1-4)GlcNAc(b1-3)Gal(b1-3)GlcNAc
# Outline: as §1
# [25] = biological target: Neu5Ac(a2-6)Gal(b1-4)GlcNAc(b1-3)Gal(b1-4)GlcNAc
# Outline: as §1
# [26] = biological target: Neu5Ac(a2-6)Gal(b1-4)GlcNAc(b1-3)Gal(b1-4)GlcNAc(b1-2)Man(a1-3)[Neu5Ac(a2-6)Gal(b1-4)GlcNAc(b1-3)Gal(b1-4)GlcNAc(b1-2)Man(a1-6)]GalNAc
# Outline: as §1
# [27] = biological target: Neu5Ac(a2-6)Gal(b1-4)GlcNAc(b1-3)Gal(b1-4)GlcNAc(b1-3)Gal(b1-4)GlcNAc
# Outline: as §1
# [28] = biological target: Neu5Ac(a2-6)Gal(b1-4)GlcNAc(b1-3)Gal(b1-4)GlcNAc(b1-3)Gal(b1-4)GlcNAc(b1-2)Man(a1-3)[Neu5Ac(a2-6)Gal(b1-4)GlcNAc(b1-3)Gal(b1-4)GlcNAc(b1-3)Gal(b1-4)GlcNAc(b1-2)Man(a1-6)]GalNAc
# Outline: as §1
# [29] = biological target: Neu5Ac(a2-6)Gal(b1-4)GlcNAc(b1-3)Gal(b1-4)GlcNAc(b1-3)GalNAc
# Outline: as §1
# [30] = biological target: Neu5Ac(a2-6)Gal(b1-4)GlcNAc(b1-3)Gal(b1-4)GlcNAc(b1-3)[Neu5Ac(a2-6)Gal(b1-4)GlcNAc(b1-3)Gal(b1-4)GlcNAc(b1-6)]GalNAc
# Outline: as §1
# [31] = biological target: Neu5Ac(a2-6)Gal(b1-4)GlcNAc(b1-3)Gal(b1-4)GlcNAc(b1-6)[Gal(b1-3)]GalNAc
# Outline: as §1
# [32] = biological target: Neu5Ac(a2-6)Gal(b1-4)GlcNAc(b1-3)Gal(b1-4)[Fuc(a1-3)]GlcNAc(b1-3)Gal(b1-4)[Fuc(a1-3)]GlcNAc
# Outline: as §1
# [33] = biological target: Neu5Ac(a2-6)Gal(b1-4)GlcNAc(b1-3)GalNAc
# Outline: as §1
# [34] = biological target: Neu5Ac(a2-6)Gal(b1-4)GlcNAc(b1-3)[Neu5Ac(a2-6)Gal(b1-4)GlcNAc(b1-6)]GalNAc
# Outline: as §1
# [35] = biological target: Neu5Ac(a2-6)Gal(b1-4)GlcNAc(b1-6)GalNAc
# Outline: as §1
binder,measurement,setting,value
BTL (Bryothamnion triquetrum) (protein) ADPICGSSGYSCTTPAILTPKSPGSFPSGYSKVIVTGVGGSYSVYIHRPDGFKVYKASEGGCASFGSYSGGGNSEVGKYGSGGTVVAVACK,glycan array binding signal (z-score),Neu5Ac(a2-3)GalNAc,-0.277
same,glycan array binding signal (z-score),[1],-0.256
same,glycan array binding signal (z-score),[2],-0.186
same,glycan array binding signal (z-score),[3],-0.276
same,glycan array binding signal (z-score),[4],-0.208
same,glycan array binding signal (z-score),[5],-0.241
same,glycan array binding signal (z-score),Neu5Ac(a2-6)Gal,-0.254
same,glycan array binding signal (z-score),[6],-0.251
same,glycan array binding signal (z-score),Neu5Ac(a2-6)Gal(b1-4)Glc,-0.264
same,glycan array binding signal (z-score),[7],-0.257
same,glycan array binding signal (z-score),[8],-0.199
same,glycan array binding signal (z-score),[9],-0.279
same,glycan array binding signal (z-score),[10],-0.197
same,glycan array binding signal (z-score),[11],-0.274
same,glycan array binding signal (z-score),[12],-0.263
same,glycan array binding signal (z-score),[13],-0.22
same,glycan array binding signal (z-score),[14],-0.249
same,glycan array binding signal (z-score),[15],-0.19
same,glycan array binding signal (z-score),[16],8.12
same,glycan array binding signal (z-score),[17],-0.204
same,glycan array binding signal (z-score),[18],-0.245
same,glycan array binding signal (z-score),[19],-0.287
same,glycan array binding signal (z-score),[20],-0.268
same,glycan array binding signal (z-score),[21],-0.202
same,glycan array binding signal (z-score),[22],-0.25
same,glycan array binding signal (z-score),[23],-0.217
same,glycan array binding signal (z-score),[24],-0.257
same,glycan array binding signal (z-score),[25],-0.277
same,glycan array binding signal (z-score),[26],-0.208
same,glycan array binding signal (z-score),[27],-0.265
same,glycan array binding signal (z-score),[28],-0.016
same,glycan array binding signal (z-score),[29],-0.108
same,glycan array binding signal (z-score),[30],-0.183
same,glycan array binding signal (z-score),[31],-0.161
same,glycan array binding signal (z-score),[32],-0.234
same,glycan array binding signal (z-score),[33],-0.18
same,glycan array binding signal (z-score),[34],-0.22
same,glycan array binding signal (z-score),[35],-0.107
